# PubChem BioAssay AID504332 (National Center for Advancing Translational Sciences (NCATS), 2011)
# In all, about 350,000 compounds went through this assay and about 31,000 (8.9%) were called active. Inconclusive means that the source gave no clear call. Such entries were picked first, then a sample of the others. The call rests on the fitted dose curve; in most records, active means well fitted inhibition curve with a large enough effect; inconclusive means small, poorly fitted or top-dose-only effect; inactive means no such curve, though single readings can be large or run the other way. A potency beside an inconclusive call is a rough fit, not a confirmed value.
# Target: Histone-lysine N-methyltransferase EHMT2 (Homo sapiens) (UniProt Q96KQ7)
# Experiment: qHTS Assay for Inhibitors of Histone Lysine Methyltransferase G9a; further: nearly all actives have a fitted effect of over 75% in size
# Details: G9a H3K9 monomethylation, AlphaScreen, 2 h; activity, negative = inhibition: at 59 µM (top of the series) unless noted
# Method in brief: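 G9a (20 nM) was preincubated 15 min with compound, then reacted 2 h at room temperature with 500 nM biotin-H3K9 peptide and 20 µM SAM. Monomethyl-H3K9 detected by AlphaScreen using anti-H3K9me1 antibody.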
# On the % scale 0 is the no-effect control and ±100 the full control effect; potency means the concentration at half of the fitted maximal effect; tags describe the fitted curve by direction and shape.
# Chain of UniProt Q96KQ7 (Q96KQ7 whole entry, looked up): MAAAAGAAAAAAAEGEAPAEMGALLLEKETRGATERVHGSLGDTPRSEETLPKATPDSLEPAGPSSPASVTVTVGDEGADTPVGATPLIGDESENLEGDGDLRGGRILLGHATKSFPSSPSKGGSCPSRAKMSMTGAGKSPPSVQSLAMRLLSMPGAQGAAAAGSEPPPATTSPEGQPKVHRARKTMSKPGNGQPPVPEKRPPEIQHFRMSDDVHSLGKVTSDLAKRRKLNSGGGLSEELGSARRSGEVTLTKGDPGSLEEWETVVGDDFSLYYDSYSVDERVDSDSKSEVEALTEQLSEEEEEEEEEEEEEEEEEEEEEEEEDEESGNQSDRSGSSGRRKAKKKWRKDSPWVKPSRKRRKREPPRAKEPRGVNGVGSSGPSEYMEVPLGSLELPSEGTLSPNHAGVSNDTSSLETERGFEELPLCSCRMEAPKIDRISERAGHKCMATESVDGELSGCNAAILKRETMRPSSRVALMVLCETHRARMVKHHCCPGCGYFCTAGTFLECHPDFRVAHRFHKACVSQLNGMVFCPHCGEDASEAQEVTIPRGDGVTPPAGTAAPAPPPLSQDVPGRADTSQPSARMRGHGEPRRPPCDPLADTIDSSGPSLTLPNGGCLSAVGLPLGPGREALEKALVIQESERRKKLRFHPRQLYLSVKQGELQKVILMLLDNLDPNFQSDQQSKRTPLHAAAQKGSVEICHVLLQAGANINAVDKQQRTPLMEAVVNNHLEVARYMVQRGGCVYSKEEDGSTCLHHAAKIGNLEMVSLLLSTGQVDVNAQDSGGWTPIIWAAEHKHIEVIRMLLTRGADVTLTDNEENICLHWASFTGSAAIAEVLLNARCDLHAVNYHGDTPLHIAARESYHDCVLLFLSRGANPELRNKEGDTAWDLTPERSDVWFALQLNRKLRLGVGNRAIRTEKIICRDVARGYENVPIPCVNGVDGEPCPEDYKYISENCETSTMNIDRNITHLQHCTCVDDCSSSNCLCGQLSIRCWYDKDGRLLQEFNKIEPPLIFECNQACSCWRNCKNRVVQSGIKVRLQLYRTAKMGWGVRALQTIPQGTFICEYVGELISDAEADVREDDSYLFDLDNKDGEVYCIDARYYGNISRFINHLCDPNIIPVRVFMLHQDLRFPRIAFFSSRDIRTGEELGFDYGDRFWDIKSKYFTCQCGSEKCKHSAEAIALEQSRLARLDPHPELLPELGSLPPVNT
Compound,Potency,"activity, negative = inhibition"
CCC(Oc1ccc(C)cc1)C(=O)Nc1ccc(S(=O)(=O)Nc2nccs2)cc1 (centres undefined),"inconclusive: 89.1 µM [inhibitor, single point]",–
O=C(O)c1ccc(NC(CSCc2ccc(F)cc2)C(=O)O)c([N+](=O)[O-])c1 (centres undefined),inactive,–
COc1ccc(CCC(=O)NCc2nc3cccnc3n2Cc2cccc(OC)c2)cc1,inactive,–
Cn1nnnc1SCC(=O)N1c2ccccc2Sc2ccccc21,"inconclusive: 0.1 µM [inhibitor, full curve, poor fit]",–
Cc1n[nH]c(=O)c2c(NC(=O)CSc3nn(-c4ccccc4)c(=S)s3)oc(C)c12,"inconclusive: 56.2 µM [inhibitor, partial curve, poor fit]",–
Cc1ccccc1Cn1c(=O)n(CCCCC(=O)NCc2ccccc2Cl)c(=O)c2ccccc21,inactive,–
Cc1cc(C(=O)COC(=O)CNS(=O)(=O)c2ccc3ccccc3c2)c(C)n1-c1ccccc1,"inconclusive: 44.7 µM [inhibitor, partial curve]",–
O=C(NCc1ccccc1Cl)c1ccc(NC(=O)c2nsc3ccccc23)cc1,inactive,–
Nc1nc2c(F)cccc2s1,inactive,–
C/C=C/c1ccc(OCC(O)CNCC(c2ccc(OC)cc2)N(C)C)c(OC)c1 (centres undefined),"inconclusive: 1.12 µM [inhibitor, single point]",–
O=C(C[n+]1cc(-c2ccc(Cl)c(Cl)c2)n2c1CCC2)N1c2ccccc2Sc2ccccc21,"inconclusive: 89.1 µM [inhibitor, single point]",–
COc1ccc(OC)c(NC(=O)CCn2cccc2)c1,"inconclusive: 50.1 µM [inhibitor, partial curve, poor fit]",–
COc1ccc2c(c1)CC(NC(=O)Nc1ccc(NC(C)=O)cc1)CO2 (centres undefined),inactive,–
COC(=O)CCP(=O)(O)Cc1ccccc1CP(=O)(O)CCC(=O)OC,"inconclusive: 50.1 µM [inhibitor, partial curve, poor fit]",–
CNc1sc(C(=O)c2ccc(F)cc2)c(N)c1-c1nc2ccccc2s1,active: 8.91 µM,–
CNc1snc(C)c1C(=O)OCC(=O)c1cc(F)ccc1OC,"inconclusive: 39.8 µM [inhibitor, single point]",–
CCOC(=O)C1=NN(c2ccc(OC)cc2)C(c2ccccc2)CC1=O (centres undefined),"inconclusive: 20 µM [inhibitor, single point]",–
O=C(c1ccco1)N1CCN(C(=O)c2cn(-c3ccccc3)nc2-c2ccccc2)CC1,–,inactive: -0.52% [at 12.7 µM]
CCOC(=O)c1[nH]c2ccccc2c1NC(=O)CN(C)C,"inconclusive: 4.47 µM [inhibitor, partial curve, poor fit]",–
O=C(O)c1ncn(Cc2ccc(Br)cc2)c1C(=O)O,active: 3.98 µM,–
CCNC(=S)NNC(=O)Nc1ccccc1,active: 3.16 µM,–
COc1ccc2c(c1)c1c(c(=O)n(Cc3ccccc3)c(=O)n1Cc1ccccc1)n2C,"inconclusive: 7.08 µM [inhibitor, partial curve, poor fit]",–
CC(=O)Nc1sc(N/N=C\c2ccccc2)nc1-c1cccs1,active: 11.2 µM,–

Compound,Potency,"activity, negative = inhibition"
O=C(O)Cn1cc(/C=C/[N+](=O)[O-])c2ccccc21,active: 56.2 µM,–
COCCCN1C(=O)C(=O)/C(=C(/O)c2ccc(C)cc2)C1/C=C/c1ccccc1 (centres undefined),active: 44.7 µM,–
COC(=O)Nc1nn(Cc2ccccc2F)cc1Br,inactive,–
O=C(c1ccc(Cl)c(S(=O)(=O)N2CCCC2)c1)N1CCN(c2ccccn2)CC1,"inconclusive: 35.5 µM [inhibitor, single point]",–
O=S(=O)(NC1CCCC1)c1ccc(-n2cnnn2)cc1,"inconclusive: 8.91 µM [inhibitor, full curve]",–
O=C(CCC(=O)N(CC(=O)NC1CCCC1)C1CCCCC1)Nc1ccccn1,"inconclusive: 35.5 µM [inhibitor, partial curve]",–
CCCNC(=O)c1c(NC(=O)c2ccc(C)cc2)sc2c1CCCCC2,inactive,–
CC1(C)Cc2ccccc2C(N/N=C/c2ccc([N+](=O)[O-])cc2)=N1,"inconclusive: 8.91 µM [inhibitor, full curve]",–
Nc1nnc(SCC(=O)c2ccc([N+](=O)[O-])cc2)s1,"inconclusive: 7.08 µM [inhibitor, partial curve, poor fit]",–
Oc1ccc(-c2cn3c(n2)SCC3)cc1,active: 8.91 µM,–
O=C(NCc1ccc2c(c1)OCO2)C1CCN(C(=O)Nc2ccc(Cl)cc2)CC1,inactive,–
COc1ccc(S(=O)(=O)Cc2ccc(C(=O)N3CCCC3)o2)cc1,"inconclusive: 70.8 µM [inhibitor, single point]",–
COc1cc(-c2nnc(SCC(=O)NC3CCCC3)n2C)cc(OC)c1O,active: 79.4 µM,–
Cc1ccc(-c2noc(-c3nnn(CC(=O)Nc4cccc(C(F)(F)F)c4)c3N)n2)cc1,"inconclusive: 3.98 µM [inhibitor, full curve, poor fit]",–
COc1ccccc1N1CCN(C(CNS(=O)(=O)c2cccs2)c2cccnc2)CC1 (centres undefined),active: 50.1 µM,–
O=C(CCN1C(=O)/C(=C/c2ccc(Cl)cc2)SC1=S)NCCCn1ccnc1,"inconclusive: 25.1 µM [inhibitor, partial curve, poor fit]",–
O=C(c1ccccc1)c1ccc(Cn2cc(CCCO)nn2)cc1,"inconclusive: 79.4 µM [inhibitor, single point]",–
CCOC(=O)c1cccc(NC(=O)Nc2ccc3c(c2)N(C)C(=O)c2ccccc2S3)c1,"inconclusive: 28.2 µM [inhibitor, partial curve, poor fit]",–
Cc1ccc(N=Nc2cc(C)ccc2O)c(C)c1,active: 7.94 µM,–
Cc1ccc(/C(O)=C2/C(=O)C(=O)N(CC(=O)O)C2c2ccc([N+](=O)[O-])cc2)cc1 (centres undefined),"inconclusive: 25.1 µM [inhibitor, single point]",–
CCOC(=O)c1c(C)oc2nc(C)nc(NCCCN3CCN(c4cc(Cl)ccc4C)CC3)c12,"inconclusive: 0.398 µM [inhibitor, full curve]",–
CC(C)c1cc2c(c(O)c1O)[C@@]13CCCC(C)(C)C1CC2OC3=O (some centres undefined),active: 0.891 µM,–
O=C(COC(=O)CSc1ccccc1)NCCNC(=O)COC(=O)CSc1ccccc1,"inconclusive: 50.1 µM [inhibitor, partial curve]",–

Compound,Potency,"activity, negative = inhibition"
COc1ccc(-c2nnc(SC(C)C(=O)Nc3nccs3)n2Cc2ccccc2)cc1OC (centres undefined),"inconclusive: 79.4 µM [inhibitor, single point]",–
O=C(Cn1c(CN2CCCCC2)nc2ccccc2c1=O)Nc1ccccc1,"inconclusive: 0.708 µM [inhibitor, full curve, poor fit]",–
CN(C(=S)Nc1ccc(Oc2ccccc2)cc1)C1CCCCC1,inactive,–
CCc1ccc(CN2CCC(n3nccc3NC(=O)Cc3ccccc3)CC2)o1,inactive,–
COC(=O)C1CSc2[nH]c(=O)sc2C1c1ccc(OC)c(OC)c1 (centres undefined),active: 70.8 µM,–
O=[N+]([O-])c1cccc(/C([O-])=C(/C(=S)Nc2ccccc2)[n+]2ccccc2)c1,active: 10 µM,–
COc1cccc(-c2nc(CCl)cs2)c1OC,active: 22.4 µM,–
O=c1c2ccccc2c(C=NCc2ccccn2)c(O)n1-c1ccccc1Cl,"inconclusive: 56.2 µM [inhibitor, partial curve]",–
O=C(CSc1ccc2nnc(-c3ccccn3)n2n1)N1CCN(c2ccccc2)CC1,active: 50.1 µM,–
C=CCNCCCCOc1c(Cl)cc(C)cc1Br,"inconclusive: 8.91 µM [inhibitor, partial curve, poor fit]",–
CS(=O)(=O)c1cccc(-c2nnc(NC(=O)CCS(=O)(=O)c3ccccc3)o2)c1,active: 31.6 µM,–
COCCNC(=O)[C@@]1(C)C=C[C@@H](Cc2ccccc2)N1C(=O)c1ccccc1,"inconclusive: 63.1 µM [inhibitor, partial curve, poor fit]",–
CCCCN1C2=C(C(=O)CCC2)C(c2ccc(Cl)c(Cl)c2)C2=C1c1ccccc1C2=O (centres undefined),"inconclusive: 3.98 µM [inhibitor, single point]",–
O=C(NCCN1C(=O)S/C(=C\c2ccccc2Cl)C1=O)C1=COCCO1,"inconclusive: 56.2 µM [inhibitor, partial curve]",–
CCCC[C@@H](CNC)NC[C@H](Cc1ccc(O)cc1)NCCc1ccc(OCC)cc1,"inconclusive: 89.1 µM [inhibitor, single point]",–
CCn1cc2c(c1-c1cccc(C)c1)c(=O)n(C)c(=O)n2C,"inconclusive: 28.2 µM [inhibitor, single point]",–
O=C(Nc1cccc(-c2nc3ccccc3[nH]2)c1)c1c(F)cccc1F,inactive,–
COC(=O)[C@@]1(Cc2ccc(F)cc2)[C@H]2c3cc(C(=O)N(C)C)n(CCSCCO)c3C[C@H]2CN1C(=O)c1ccccc1,"inconclusive: 89.1 µM [inhibitor, single point]",–
O=C(Cn1cc(S(=O)(=O)N2CCN(c3ccccc3F)CC2)c2ccccc2c1=O)NCCCN1CCCCCC1,"inconclusive: 79.4 µM [inhibitor, single point]",–
Cc1ccc2c(c1)-c1c(cnn1CC(=O)N(Cc1ccco1)C1CCCCC1)CO2,inactive,–
COc1ccc(S(=O)(=O)Nc2ccccc2C(=O)NC(C)(C)C)cc1OC,inactive,–
Cc1ccc(NC(=O)CSc2nnc(-c3cnccn3)n2C)cc1C,"inconclusive: 50.1 µM [inhibitor, partial curve, poor fit]",–
COc1ccc(C2CC(C(F)(F)F)n3nc(C(=O)N(C)Cc4cn(C)nc4C)c(Cl)c3N2)cc1 (centres undefined),"inconclusive: 89.1 µM [inhibitor, single point]",–
